Assay results from the supplement of paper PMC3334620.
Over roughly 33,000 sequences, “E-score (-0.5 to 0.5)” has its median near -0.012; the highest 2% begin near 0.27. The list shows a part of the results.

Target: T1, Vhr1 (UniProt P40522)
T1 sequence: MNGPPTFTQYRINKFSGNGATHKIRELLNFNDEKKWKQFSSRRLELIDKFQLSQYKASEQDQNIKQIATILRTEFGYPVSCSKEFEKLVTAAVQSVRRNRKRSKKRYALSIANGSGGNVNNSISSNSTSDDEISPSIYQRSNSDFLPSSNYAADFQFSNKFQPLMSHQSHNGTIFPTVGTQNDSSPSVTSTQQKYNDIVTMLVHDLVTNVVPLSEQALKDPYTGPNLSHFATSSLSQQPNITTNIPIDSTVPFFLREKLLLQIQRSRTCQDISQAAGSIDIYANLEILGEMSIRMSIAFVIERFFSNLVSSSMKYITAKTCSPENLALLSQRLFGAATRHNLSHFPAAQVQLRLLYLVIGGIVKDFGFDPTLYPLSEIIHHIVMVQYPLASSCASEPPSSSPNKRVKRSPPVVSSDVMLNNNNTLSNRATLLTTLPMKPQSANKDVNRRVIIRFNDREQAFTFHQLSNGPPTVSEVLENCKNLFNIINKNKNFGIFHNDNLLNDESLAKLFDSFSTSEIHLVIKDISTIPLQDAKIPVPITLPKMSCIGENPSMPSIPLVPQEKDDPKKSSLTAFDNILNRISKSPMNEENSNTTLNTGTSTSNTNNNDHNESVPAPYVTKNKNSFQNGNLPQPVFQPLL
Experiment: PBM E-score (8-mer binding enrichment) (E-score (-0.5 to 0.5)); higher = stronger / more preferred TF binding; most listed sequences are background and not binding sites
Conditions: protein concentration: 200 nM; construct: GST-full length
Outline: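 Using PURExpress in vitro transcription/translation, GST-tagged yeast transcription factors were made in full-length or DNA-binding-domain form. These were applied at about 100-200 nM to double-stranded universal all-10-mer Agilent arrays, and bound protein was detected with fluorescent anti-GST. Scans were normalised with masliner before the Universal PBM Analysis Suite assigned E-scores to ungapped eight-base words pooled with their reverse complements.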

Sequence | PBM E-score
ACGTTCAA | -0.263
AGCATGTC | 0.133
ATATTAGG | 0.0838
AGGATGGA | -0.0494
AGTACCCC | 0.0588
ATTGCAAT | -0.0197
ATCGACAA | -0.0534
TAACGACA | -0.0196
GTAGCTCA | 0.0143
ATCAAAGA | -0.186
GATTCGGC | 0.168
CCCTAGAG | -0.0545
GCCTATCC | -0.116
ATTTGGGA | -0.105
ACGTGCCT | 0.0454
GTTACAAC | 0.101
ATCTTCGG | -0.144
AAACTAAT | 0.177
ATCCCATC | -0.103
AGCCTGCG | -0.0373
GTCCCCAC | -0.0828
GAGTGGTA | 0.101
ATGTCAAT | -0.0117
AATCGAAC | 0.021
TATAGGAA | 0.0238

Sequence | PBM E-score
GACTCACC | 0.469
GCCACTCA | 0.12
CTTCGAAC | -0.073
GTATCAGA | -0.00014
GGACTGCA | 0.0284
CAGTTGTC | 0.0804
GACTAGAA | 0.0461
ATCGGCGG | 0.175
CTTGGGTA | 0.157
CGGACCCC | -0.158
ACATCAGC | 0.0376
CAGCGCCC | -0.0867
CTAATTGC | 0.127
GTCGGCAA | -0.0184
CCTGTTGC | 0.0181
GGGTCTCA | 0.00842
GGGATAAC | -0.0823
AATAGGCT | -0.053
AAGACCCG | -0.00758
CAAATGCC | -0.267
CCGAGCGA | 0.129
GAACTCCC | 0.102
GGGCCTCA | -0.276
GGAGCTTA | -0.116
ACTTTATC | -0.0107

Sequence | PBM E-score
AGCTGCAA | -0.235
ACCGACTA | -0.0288
CGATTTGA | -0.0158
GACCCCGA | 0.0335
GGGTGGAC | 0.0477
ACTCCTCC | 0.16
TCGAAAAA | -0.0657
AGGCATGA | -0.0052
AAACCGTC | -0.145
TACTTCGA | -0.0214
ACGTAAAC | -0.331
AATGCTAT | -0.0368
GGGCTAGA | -0.0758
GGTTCCAA | 0.118
ACAACTAG | -0.0674
AACAGCGC | 0.0307
AAGCCTCA | -0.178
TCTCCTAA | -0.12
GATACGAC | 0.135
GGCTTCCC | -0.0269
AGGTCGAT | 0.0258
ACGTTCAT | -0.194
AAGAATCT | -0.21
GACACCCA | 0.117
GGGCCAGA | -0.159

Sequence | PBM E-score
ACTCTTAG | -0.081
GATCTCCA | -0.136
ATCCGCCA | 0.0315
GATATCGA | -0.0237
GAACCAAC | 0.156
CGCCGTTA | 0.053
GGTTCCCA | 0.0487
GGAATGAC | 0.116
ATAACCAC | 0.226
GTCACGAC | 0.111
CCCAACAG | -0.0293
ATTGGAGC | 0.112
AAATCAGT | -0.144
CAAACGCC | 0.0838
CAGACGAC | 0.126
ACGTTAGA | -0.18
AAGTCACA | 0.246
GTGCCTTA | -0.128
AGTACCTC | 0.00267
GTTTAACA | -0.143
GAACAGGA | -0.0169
AGTGATAC | 0.237
ATGTCTAA | -0.0254
CCTCCACA | -0.00904
CAAGTTGC | -0.109

Sequence | PBM E-score
ATATACCA | 0.0472
ATTAATGG | 0.112
GCTGAGTA | 0.0378
ACTCGTAC | 0.125
GGCTAACA | -0.0545
ATACCGAC | 0.066
CCAACTGG | 0.00035
ATTAACTA | 0.0964
AAATATAC | -0.0212
CGACCAAA | 0.0304
CGTATGGA | -0.0114
AACTAGTT | -0.125
GTTCTCCA | -0.111
TAGGTGGA | 0.00371
CCATATAG | 0.0114
GGATCATA | 0.113
ATCGAATG | 0.0677
CTATGTAA | 0.0968
CGATCCAA | -0.0793
AGCACTAT | 0.0206
CACACTTA | 0.0546
GAGGAGTA | -0.0872
GCAACGTA | -0.116
AGTGGCTG | 0.172
AGGCCTGA | 0.057

Sequence | PBM E-score
AGTCTATC | -0.0607
CCCTTAAG | -0.177
GGTGAACC | 0.0932
CTCGTGGC | 0.0253
CCCCGATA | -0.0655
CCTAAGTA | -0.0946
AACGGCCT | -0.166
AGTTAGAA | -0.106
CCGGTGTA | 0.0823
CTAAAAGA | -0.0922
AATAACGC | -0.123
ACAACATC | -0.049
TATATTGA | 0.163
ATCCGATC | 0.208
GCTTATCA | 0.129
CGCTCGTC | -0.213
ACTGCACG | 0.145
GTTCTAAA | -0.164
CGGAGTTA | 0.111
TCGAGGAA | -0.233
CCCCGAGA | -0.151
AACACTTG | -0.0756
GCCTACAA | -0.00036
ACGTTTCC | -0.257
CGTCCGCA | -0.0416

Sequence | PBM E-score
GATGATTA | 0.337
CGCTCCAA | -0.121
AAAGCTGC | -0.0868
ACCGGGCA | -0.151
ATGCCTCG | 0.0771
CATAAGAG | 0.0228
AGAAGCTC | -0.238
AACGGTGG | -0.15
AGAGAGGG | -0.217
CATGCAGC | 0.125
GGAGTGCC | -0.124
GCCCGACA | 0.22
CGCGTCCG | 0.103
ACGATGAC | 0.201
AACCGATG | 0.0505
ATCTTCCC | -0.0634
CCAAGATC | -0.0828
GTCAATCA | 0.221
AAATGTCT | -0.0752
AATGAGCC | -0.00477
CGACCCCC | -0.261
GAGGTCAC | 0.00149
ACCGGTGG | -0.19
CCACAGAC | 0.027
GGACTCAC | 0.372

Sequence | PBM E-score
TAATCACA | 0.222
ACGAAAGC | -0.156
ATGAACCG | 0.0189
ACCTTAAG | -0.186
CCCCGAAA | -0.131
AATCGTCG | 0.138
ACGTTGAC | 0.0527
CAAGGCGG | 0.0629
AGAAGCTA | -0.0653
ATACCCAA | 0.00553
AATGGCAC | -0.0953
GTCCCCAA | 0.0184
GCAGGTAA | -0.116
AATGCGCG | 0.193
GTGGTAGA | -0.092
CTCGCGCA | -0.0905
ACACGCCT | -0.0326
ATCTGCTA | -0.0634
AATGACCG | 0.0377
CCGTCGAC | 0.0775
GCTGATAC | 0.0137
CCCCAGGA | -0.0514
ACTGTGTG | 0.261
AACCTAGT | 0.0742
ATTTTTAC | -0.263

Sequence | PBM E-score
CGTCTATA | 0.00266
ACAGTAGT | 0.211
GCGTAGAA | -0.0539
CACGACCC | 0.0607
CCGTCAGA | -0.117
CCGCCGGC | -0.0261
CTTTCCCC | -0.0508
ACTGAAAC | 0.195
ACACAAAA | -0.0345
ATGTTGTA | 0.11
AGCTGCTG | 0.0783
CATATAGA | 0.189
ATCTGGTG | 0.13
ATGCCCAA | -0.161
ACGCGATC | 0.0331
AGTCTGAT | 0.132
CGAGGACA | -0.0952
GAGACACC | 0.151
GCCGATGA | 0.12
